Reference: ChEMBL document CHEMBL4888484, “Replenishing the malaria drug discovery pipeline: Screening and hit evaluation of the MMV Hit Generation Library 1 (HGL1) against asexual blood stage Plasmodium falciparum ,using a nano luciferase reporter read-out” (2022)
In all, about 150,000 compounds went through this assay and about 540 (0.36%) showed an effect of 50% or more. The list shows a part of the results.

Test system: Plasmodium falciparum
Test: Primary screen in NF54 nanoGlo assay, in single point, at 2uM, 72h; a lower Z score goes with more inhibition
Format: functional, Erythrocyte
Details: timepoint 72 hour

Row | Structure (SMILES) | % Inhibition | Z score
1 | O=C(CC1CC1)N1CCC[C@@H]1CCc1noc(-c2ccccn2)n1 | -23% | 3.78
2 | CCOC(=O)c1c(NC(=O)COC[C@H]2CCCO2)ccn1C | -13% | 2.47
3 | Cc1cc(O)cc(=O)n1CCC(=O)N1CC(C)(C)[C@@H]2CCC[C@@H]21 | -15% | 1.49
4 | Cc1nc(N(C)C)nc(N2C[C@H](O)[C@@H](N3CCN(C)CC3)C2)c1C | -5% | 0.97
5 | FC(F)(F)c1cccc2c(N3CCC4(CCCN4Cc4ncc[nH]4)CC3)ccnc12 | -7% | 0.88
6 | Cc1nc2ccc(C(=O)N[C@H]3CCC(=O)NC34CCC4)cc2n1C | -6% | 0.54
7 | O=S(=O)(NC[C@H]1CCN(c2ccccc2)C1)N1CCOCC1 | -2% | 0.34
8 | CC(C)Cc1cc(CNC2CCN(CC(C)C)CC2)no1 | -6% | 1.09
9 | O[C@H]1CN(Cc2coc(-c3ccccc3)n2)C[C@@H]1F | -6% | 0.8
10 | Cc1cc(N2C[C@@H]3OC(=O)N(CCN4CCCCC4)[C@@H]3C2)nc(C(C)C)n1 | -7% | 0.74
11 | Cc1ccc([C@H]2CN(S(=O)(=O)c3ccc4c(c3)OCCCO4)C[C@@H]2N)o1 | -11% | 1.4
12 | CNS(=O)(=O)c1ccc(-c2ccc(OC3CC3)cc2)cc1 | -13% | 1.62
13 | CCCOc1ccc(C2C3C(=O)N(c4cccc5ccccc45)C(=O)C3ON2c2ccccc2)cc1OC (stereo unspecified) | -14% | 1.48
14 | O=C(CCc1ccc(F)cc1)Nc1nccc(-c2ccco2)n1 | 29% | -0.55
15 | CCOc1ccc(CN2C(=O)CC[C@@]2(C)C(=O)NC2CCCCC2)cc1OC | 1% | -0.16
16 | N#C[C@@H](N)c1ccc(Cl)c(Cl)c1 | -1% | 0.23
17 | Cc1nn(CC(=O)N2CCN(C)c3ncccc3C2)c2ncccc12 | -1% | 0.09
18 | CC[C@H](OC)C(=O)Nc1cc(C(=O)NC(C)C)ccc1C | 0% | 0.09
19 | COC[C@@H](c1ccccn1)n1ccnc1-c1cc2n(n1)CCCNC2 | -1% | 0.11
20 | COCCN(C)Cc1ccc(CC2CCN(C(=O)c3ccc(C)s3)CC2)cc1 | -10% | 1.95
21 | O=C(Cn1cnnn1)N(c1ccccc1F)C1CCCC1 | -4% | 0.63
22 | CCOC(=O)N1CCN(C2=NC(=O)[C@@H](C#N)C3(CCCCC3)N2)CC1 | -5% | 0.65

Row | Structure (SMILES) | % Inhibition | Z score
23 | COc1cc2c(cc1OC)CN([C@H]1CCN(Cc3cccc(Cl)c3)C[C@H]1CCC(=O)O)CC2 | -5% | 0.73
24 | Cc1cn2nc(C(=O)NCCc3ccccc3)cc2c(=O)[nH]1 | 3% | -0.45
25 | Brc1ccc(CN2CC(c3nc(Cc4ccccc4)no3)C2)cc1 | -12% | 2.24
26 | O=C1NCCN(Cc2cccc3ccccc23)[C@H]1CC(=O)N1CCOCC1 | 3% | -0.48
27 | CN(C)c1cc(NC(=O)N2CCC[C@](C)(c3ccccc3)C2)ncn1 | -23% | 4.24
28 | COc1cccc(N2CCN(C(=O)c3cn4cc(-c5ccc(F)c(C)c5)ccc4n3)CC2)c1 | -9% | 1.72
29 | CC(C)C(=O)N1CCc2cc(CNC(=O)c3ccccc3F)ccc21 | -18% | 1.65
30 | O=C(Nc1c[nH]nc1-c1nccs1)N1C2CCC1CC(O)C2 (stereo unspecified) | -2% | 0.26
31 | O=C(Nc1ccccc1)NC1CCCC(OC(=O)Nc2ccccc2)C1 (stereo unspecified) | -17% | 2.98
32 | CCOc1cc2c(cc1CN1CCn3nc([C@H](C)O)cc3C1)CCC2 | -10% | 1.79
33 | CCc1nc(-c2ccccc2)nc(N2CCN(C(C)=O)CC2)c1Cc1cccc(Cl)c1 | -2% | 0.31
34 | O=C(NCCc1ncc[nH]1)c1ncccc1Oc1ccccc1 | -15% | 2.9
35 | Cc1cccc(CCN2CCN(C(=O)CN3CCOCC3)CC2)n1 | -9% | 1.18
36 | CC(C)[C@H](C)n1nccc1NC(=O)N1CCN(Cc2ccccc2)CC1 | -18% | 3.8
37 | CCC(C)(C)C1CCC2(CC1)C[C@@H]2C(=O)N1CCOC2(CCOCC2)CC1 (stereo partly specified) | -7% | 0.97
38 | CCN(C(=O)CCN1CCCS1(=O)=O)C1CC1 | -31% | 3.64
39 | COc1ccc(NC2=N[C@@H](c3ccc(Cl)cc3)n3c(nc(C)cc3=O)N2)cc1 | 7% | -0.84
40 | NC(=O)c1nnsc1-n1nnc2ccccc21 | 17% | -2.11
41 | C#C[C@@H]1COCCN1C(=O)c1ccnc2nn[nH]c12 | -12% | 1.8
42 | CC(Nc1ccc(C(=O)Nc2ccccc2)nn1)C1CCCO1 (stereo unspecified) | -12% | 2.17
43 | Cc1onc(-c2cccc(F)c2)c1C(=O)N1CCCC1 | -14% | 2.52
